Test results reported in article PMC4336329 (PLoS ONE, 2015).
Among all 310,000 compounds or so, about 2,200 (0.71%) showed an effect of 50% or more. The effect is printed as a negative number. The list shows a part of the results.

Target: human ether-à-go-go-related gene (hERG) potassium channel (human, UniProt Q12809)
Assay: primary screen, population patch clamp on CHO cells stably expressing hERG

Chain of human ether-à-go-go-related gene (hERG) potassium channel (Q12809 whole entry, looked up): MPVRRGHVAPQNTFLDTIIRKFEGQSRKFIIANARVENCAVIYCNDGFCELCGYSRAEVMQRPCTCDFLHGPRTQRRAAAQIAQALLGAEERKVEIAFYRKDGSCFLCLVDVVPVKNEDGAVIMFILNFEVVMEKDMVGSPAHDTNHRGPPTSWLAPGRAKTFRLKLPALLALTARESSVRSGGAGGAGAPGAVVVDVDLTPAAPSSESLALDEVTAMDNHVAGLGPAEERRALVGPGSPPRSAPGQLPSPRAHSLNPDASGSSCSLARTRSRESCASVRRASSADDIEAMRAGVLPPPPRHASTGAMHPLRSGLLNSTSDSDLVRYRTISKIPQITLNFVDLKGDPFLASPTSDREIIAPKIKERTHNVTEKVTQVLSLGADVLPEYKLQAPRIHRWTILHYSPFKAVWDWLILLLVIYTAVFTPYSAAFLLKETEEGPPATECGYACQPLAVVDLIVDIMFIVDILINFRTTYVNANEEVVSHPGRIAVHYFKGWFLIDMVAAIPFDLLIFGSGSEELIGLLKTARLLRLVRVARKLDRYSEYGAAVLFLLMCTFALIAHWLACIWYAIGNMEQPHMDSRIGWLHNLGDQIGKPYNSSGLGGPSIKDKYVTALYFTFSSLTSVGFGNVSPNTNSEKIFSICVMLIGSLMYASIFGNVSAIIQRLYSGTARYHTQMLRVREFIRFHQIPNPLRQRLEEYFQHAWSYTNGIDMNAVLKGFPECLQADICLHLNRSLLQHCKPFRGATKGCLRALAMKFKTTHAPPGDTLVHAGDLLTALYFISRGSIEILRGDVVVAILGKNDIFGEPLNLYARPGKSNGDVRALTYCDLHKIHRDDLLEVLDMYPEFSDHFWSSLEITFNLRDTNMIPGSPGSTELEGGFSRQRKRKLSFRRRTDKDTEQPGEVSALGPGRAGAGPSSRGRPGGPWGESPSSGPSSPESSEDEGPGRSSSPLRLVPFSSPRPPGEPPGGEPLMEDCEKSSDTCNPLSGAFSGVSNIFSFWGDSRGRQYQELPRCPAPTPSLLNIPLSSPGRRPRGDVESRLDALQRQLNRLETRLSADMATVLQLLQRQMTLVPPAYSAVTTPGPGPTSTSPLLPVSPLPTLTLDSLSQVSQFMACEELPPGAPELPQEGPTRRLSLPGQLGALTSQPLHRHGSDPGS

Going from CC1CC(C)(C)CC2(C1)NC(=O)N(CC(=O)NCCc1ccc3c(c1)OCCO3)C2=O (stereo not shown) to COc1ccc(CCN2C(=O)NC(NC(=O)CC(C)C)(C(F)(F)F)C2=O)cc1OC (stereo not shown), the “hERG current change (%, negative = inhibition) at 1uM” value rises from 10.1% to 12.9%.

Compared with CCCCSc1ncnc2[nH]ncc12, O=C(CSc1ncnc2c1sc1ccccc12)Nc1ccc(Br)cc1 is lower in “hERG current change (%, negative = inhibition) at 1uM” value: 3.41% for the first, -0.877% for the second.

First: CCOC(=O)CN1C(=O)C(O)(CC(=O)c2ccc3c(c2)CCCC3)c2ccccc21 (stereo not shown)
Second: Cc1c(Cl)cccc1NC(=S)N1CCc2ccccc2C1
The “hERG current change (%, negative = inhibition) at 1uM” value of the first is higher: 18.9% for the first, 12% for the second.

Compared with Cc1ccccc1Oc1ccc(Oc2ccccc2C)nn1, Cc1ccccc1-n1cc(CNC(=O)CCc2nnc(CCc3ccccc3)o2)cn1 is lower in “hERG current change (%, negative = inhibition) at 1uM” value: 13% for the first, 0.7% for the second.

First: CC(C)Sc1nc2c(c(=O)n1-c1ccc(F)cc1)SCC2
Second: CC(C)CCNC(=O)c1onc(CSc2ccc(F)cc2)c1C(=O)NCCC(C)C
The “hERG current change (%, negative = inhibition) at 1uM” value of the first is higher: 15.4% for the first, 14.7% for the second.

First: CCOc1cc(C(=O)Nn2cnnc2)cc(OCC)c1OCC
Second: CCOc1cc(/C=C/C(=O)N(CC)CC(=O)NCc2cccs2)cc(Cl)c1OC
The “hERG current change (%, negative = inhibition) at 1uM” value of the first is higher: 8.51% for the first, 0.567% for the second.

Going from COc1ccc(N2C(=O)CC(N3CCN(c4nc5ccccc5s4)CC3)C2=O)cc1 (stereo not shown) to COc1ccc(-n2nc(C(=O)NCC(=O)NC3CCCCC3)c3ccccc3c2=O)cc1, the “hERG current change (%, negative = inhibition) at 1uM” value rises from -5.74% to 18.8%.

Compared with Cc1ccc(C(=O)Cn2c(=N)n(CCN3CCOCC3)c3ccccc32)cc1.[Br-], Cc1ccc(C(=O)N2CCN(c3ccccc3)CC2)cc1S(=O)(=O)N1CCOCC1 is higher in “hERG current change (%, negative = inhibition) at 1uM” value: -20.3% for the first, 0.15% for the second.

Going from Cc1ccc(CNC(=O)C2CCC(=O)N(Cc3cccc(C(F)(F)F)c3)C2)o1 (stereo not shown) to O=C1N(Cc2cccnc2)C[C@@H]2C[C@@H](c3ccc(C(F)(F)F)cc3)N3CCC[C@@]123, the “hERG current change (%, negative = inhibition) at 1uM” value falls from -12% to -18.6%.

First: Cc1nn(CC(=O)N2CCC3(CC2)OCCO3)c(=O)c2cc3ccccc3n12
Second: CCc1nn(CCCC(=O)NCc2ccccc2C)c(=O)c2cc3occc3n12
The “hERG current change (%, negative = inhibition) at 1uM” value of the first is higher: 19.4% for the first, 8.99% for the second.

First: COc1cc2c3nnc(-c4ccc(F)cc4)c-3cn(Cc3ccc(C)cc3)c2cc1OC
Second: COC(=O)c1cc(-c2ccc(OC)c(OC)c2)n[nH]1
The “hERG current change (%, negative = inhibition) at 1uM” value of the first is higher: 13.5% for the first, 13.3% for the second.

Compared with CC(CNC(=O)CCS(=O)(=O)c1ccc2c(c1)NC(=O)CO2)c1ccccc1 (stereo not shown), CCN(Cc1ccccc1)C(=O)CC1Oc2ccccc2NC1=O (stereo not shown) is higher in “hERG current change (%, negative = inhibition) at 1uM” value: -17.1% for the first, -6.32% for the second.

Going from NC(=O)C1CCN(C(=O)CCCCCn2c(=O)[nH]c3ccsc3c2=O)CC1 to Cc1cc(C)cc(C(=O)N2CCC(C(N)=O)CC2)c1, the “hERG current change (%, negative = inhibition) at 1uM” value rises from 3.78% to 10.2%.

Compared with CC(C)(c1ccccc1)c1ccc(OCC(O)CN2CCCC2)cc1.Cl (stereo not shown), CN1CCN(C(=O)COc2ccc(Oc3ccccc3)cc2)CC1 is lower in “hERG current change (%, negative = inhibition) at 1uM” value: 8.92% for the first, 2.64% for the second.

First: C=CCn1c(O)c(/C=N/N2CCCCC2c2cccnc2)c(=O)[nH]c1=S (stereo not shown)
Second: COc1cc(OC)c(C2N(c3ccccn3)C(=O)C3CCCN32)cc1OC (stereo not shown)
The “hERG current change (%, negative = inhibition) at 1uM” value of the first is lower: -1.85% for the first, 12.8% for the second.

Compared with Cc1c(C(=O)NCc2ccc3c(c2)OCO3)oc2ccc(S(=O)(=O)N3CCCCC3)cc12, Cc1cccc(NC(=O)N2CCN(Cc3ccc4c(c3)OCO4)CC2)c1C is higher in “hERG current change (%, negative = inhibition) at 1uM” value: 0.566% for the first, 10% for the second.

Going from S=C(Nc1ccccc1Cl)N(CCCN1CCOCC1)Cc1ccccn1 to Cc1c(Cl)ccc(S(=O)(=O)NCCN2CCOCC2)c1Cl, the “hERG current change (%, negative = inhibition) at 1uM” value falls from 8.05% to 3.34%.

First: O=C(CN(CC1CCCO1)C(=O)CNS(=O)(=O)c1ccc(Cl)cc1)NC1CCCC1 (stereo not shown)
Second: O=C(NC(NCC1CCCO1)C(Cl)(Cl)Cl)c1cccc2ccccc12 (stereo not shown)
The “hERG current change (%, negative = inhibition) at 1uM” value of the first is higher: 11.7% for the first, 8.75% for the second.

Going from Cc1ccc(S(=O)(=O)NC2c3cccc4cccc(c34)C2Sc2nncn2C)cc1 (stereo not shown) to Cc1ccc(S(=O)(=O)NC(Cc2c[nH]c3ccccc23)C(=O)O)cc1 (stereo not shown), the “hERG current change (%, negative = inhibition) at 1uM” value falls from 20.8% to -2.2%.

Going from COc1ccc(OC)c(NC(=O)C2CCN(C(=O)C3CC(=O)N(c4ccc(C)cc4)C3)CC2)c1 (stereo not shown) to Cc1ccc(Nc2nc(C(=O)N3CCC(C(=O)NC(C)C)CC3)cs2)cc1, the “hERG current change (%, negative = inhibition) at 1uM” value rises from 3.42% to 11.3%.

First: Cc1ccc(-c2nnc(NC(=O)C3=COCCO3)o2)c(C)c1
Second: COc1ccc(-c2nnc(NC(=O)C3=COCCO3)o2)cc1
The “hERG current change (%, negative = inhibition) at 1uM” value of the first is higher: 11.8% for the first, 8.41% for the second.

Going from CNC(=S)NNC(=O)Cc1ccc(OC)cc1 to COc1ccc(CC(=O)OCC(=O)Nc2cccc(Br)c2)cc1, the “hERG current change (%, negative = inhibition) at 1uM” value falls from 11.1% to 4.98%.

First: COc1ccc(/C=N/NC(=O)CCc2c(C)n[nH]c2C)cc1O
Second: COc1cc(/C=N/n2cnc3c(sc4nc(C)cc(C)c43)c2=O)ccc1O
The “hERG current change (%, negative = inhibition) at 1uM” value of the first is lower: -0.301% for the first, 14.3% for the second.

First: COC(=O)C(C#N)c1nc2ccccc2nc1N1CCCC1 (stereo not shown)
Second: COc1ccccc1-c1ccc(NC2CCCCC2)nn1
The “hERG current change (%, negative = inhibition) at 1uM” value of the first is higher: 11% for the first, -14% for the second.

Compared with O=c1[nH]c2ccc(Cl)cc2c(-c2ccccc2)c1SC(=S)N1CCCCC1, CN1CCc2cc(Cl)c(O)cc2[C@@H](c2ccccc2)C1.Cl is lower in “hERG current change (%, negative = inhibition) at 1uM” value: 10.8% for the first, -18.7% for the second.

First: O=C(C1CCN(S(=O)(=O)c2ccccc2)CC1)N1CCC1
Second: CCN1CCN(C2CCCCC2NS(=O)(=O)c2ccccc2)CC1 (stereo not shown)
The “hERG current change (%, negative = inhibition) at 1uM” value of the first is higher: 13% for the first, 9.17% for the second.

First: C=CCNC(=O)c1csc(-c2ccccc2)n1
Second: O=C(NCc1cccnc1)c1cc(-c2cccs2)on1
The “hERG current change (%, negative = inhibition) at 1uM” value of the first is higher: -8.65% for the first, -28.7% for the second.

Compared with O=C(C1=COCCO1)N1CCN(S(=O)(=O)c2cccc(F)c2)CC1, Cc1csc(SCC(=O)Nc2cccc(S(=O)(=O)N3CCOCC3)c2)n1 is lower in “hERG current change (%, negative = inhibition) at 1uM” value: 15.5% for the first, 8.65% for the second.

Compared with Oc1ccccc1N=N/C(=N/Nc1ccccc1O)c1ccccc1, CN(c1cccc(NC(=O)c2ccccc2N(Cc2ccccc2)S(C)(=O)=O)c1)S(C)(=O)=O is higher in “hERG current change (%, negative = inhibition) at 1uM” value: 1.42% for the first, 18.6% for the second.

Going from CC(=O)CCC1CC(c2ccc(Cl)cc2)=NO1 (stereo not shown) to CCc1ccc(C(=O)Nc2nnn(CC)n2)cc1, the “hERG current change (%, negative = inhibition) at 1uM” value falls from 8.98% to -6.71%.

Compared with CC1=C(C(=O)Nc2ccccc2)C(c2ccccn2)n2ncnc2N1 (stereo not shown), COc1ccccc1NS(=O)(=O)c1ccc(C(=O)Nc2ncccc2O)cc1 is lower in “hERG current change (%, negative = inhibition) at 1uM” value: 10.3% for the first, 8.31% for the second.

First: COc1ccc(OC)c(CNCCc2ccc(OC)c(OC)c2)c1.O=C(O)C(=O)O
Second: COC(=O)CNC(=O)CNC(=O)c1nn(-c2ccc(OC)c(OC)c2)c(=O)c2ccccc12
The “hERG current change (%, negative = inhibition) at 1uM” value of the first is higher: 13.8% for the first, 12.5% for the second.

First: CN(C)S(=O)(=O)n1cc(/C=C(\NC(=O)c2ccccc2F)C(=O)N2CCOCC2)c2ccccc21
Second: O=C(NC(Cc1ccccc1)C(=O)O)C1CCN(S(=O)(=O)c2ccccc2C(F)(F)F)CC1 (stereo not shown)
The “hERG current change (%, negative = inhibition) at 1uM” value of the first is higher: 14.7% for the first, 12.3% for the second.

Going from Cc1nc2ccc(NS(=O)(=O)c3ccccc3F)cc2s1 to O=C(COC(=O)CNC(=O)c1cccc([N+](=O)[O-])c1)Nc1nc2ccccc2s1, the “hERG current change (%, negative = inhibition) at 1uM” value falls from 8.37% to 1.22%.

Compared with COc1ccc(C2SCC(=O)N2CC23CC4CC(CC(C4)C2)C3)cc1 (stereo not shown), CCCOc1ccc(CNC(=O)Cn2ncc3ccccc32)cc1 is higher in “hERG current change (%, negative = inhibition) at 1uM” value: 1.73% for the first, 3.93% for the second.

First: Cc1ccc(CN2CCCN(Cc3c(F)cccc3Cl)S2(=O)=O)cc1
Second: Cc1ccc(CSc2nc3sc(C)c(C)c3c(=O)n2Cc2ccco2)cc1
The “hERG current change (%, negative = inhibition) at 1uM” value of the first is higher: 17.1% for the first, -2.01% for the second.

Going from O=C(CSc1nnc(CCCO)n1-c1ccccc1)Nc1nccs1 to O=C(Nc1nccs1)c1ccc(-c2cccc([N+](=O)[O-])c2)o1, the “hERG current change (%, negative = inhibition) at 1uM” value rises from 2.18% to 14.8%.

Compared with Nc1cc(=O)[nH]c(SCC(=O)NNC(=O)c2ccccc2)n1, CC(C)[C@H](NC(=O)Cc1ccccc1)C(=O)OCc1cc(=O)n2c(n1)sc1ccccc12 is lower in “hERG current change (%, negative = inhibition) at 1uM” value: 16.6% for the first, 5.98% for the second.

Going from Cc1ccc(NC(=O)Cn2c(=O)oc3ccccc32)c(C)c1 to O=C(Nc1ccc2c(c1)oc1ccccc12)c1cccnc1, the “hERG current change (%, negative = inhibition) at 1uM” value falls from 16.5% to 12.1%.

Going from O=C1CCCN1CCCNc1ccc(S(=O)(=O)N2CCCCC2)cn1 to CCCCNC(=O)O[C@H]1C[C@@H]2CCN3C(=O)CCC(C)(C)[C@H](C1)[C@H]23, the “hERG current change (%, negative = inhibition) at 1uM” value falls from -2.53% to -11%.

Compared with Brc1cccc(-c2nnco2)c1, COc1cc(NC(=S)Nc2cccnc2)cc(OC)c1 is higher in “hERG current change (%, negative = inhibition) at 1uM” value: 4.69% for the first, 4.82% for the second.

First: O=C1NC(Cc2c[nH]c3ccccc23)C(=O)N1Cc1cccc2ccccc12 (stereo not shown)
Second: COc1ccc(NC(=O)N(Cc2cccnc2)Cc2ccccc2Cl)c(OC)c1
The “hERG current change (%, negative = inhibition) at 1uM” value of the first is higher: 9.96% for the first, -1.41% for the second.

First: COc1cc(NC(=O)COC(C)=O)c(C)cc1[N+](=O)[O-]
Second: CC12CCC(C(=O)Nc3cc(F)ccc3F)(CC1=O)C2(C)C (stereo not shown)
The “hERG current change (%, negative = inhibition) at 1uM” value of the first is higher: 19.6% for the first, 0.45% for the second.

Compared with C/[N+]([O-])=C\c1cccc(OCCN2CCN(c3ncc(C(F)(F)F)cc3Cl)CC2)c1, CCC(CC)NC(=O)Nc1ccc(C)cc1 is higher in “hERG current change (%, negative = inhibition) at 1uM” value: 1.19% for the first, 11.4% for the second.
